# Assay results reported in PubChem BioAssay AID463173 (ICCB-Longwood Screening Facility, Harvard Medical School, 2010).
# Screen size: about 52,000 compounds; about 1,700 (3.3%) were called active. No stated cut-off is given here; in the data, active means survival mostly below about 52% (no sharp cut-off); inactive means mostly above about 56%. The list shows a part of the results.
# System: Wild type
# Assay: growth inhibition of S. aureus wild type versus tarO mutant, primary screen, teichoic acid synthesis inhibitors, RN4220, OD600 (AID 463173)
# Conditions: S. aureus RN4220 wild type/DeltatarO growth, OD600, 18 h, stronger effect = lower value, screened at 18.75 µg/mL (by protocol)
row,Structure (SMILES),survival
1,COc1ccc(N(C(=O)c2cc(OC)c(OC)c(OC)c2)S(=O)(=O)c2ccc(C)cc2)cc1,inactive: 133%
2,Cc1ccccc1C(=O)Nc1ccc2nc(SCC(=O)N(C)c3ccccc3)sc2c1,inactive: 75%
3,CN(C)C1(CNC(=O)COc2cccc(Cl)c2)CCCCC1,inactive: 87%
4,Cc1cccc(Cn2c(SCc3ccc(C(=O)NCc4cccs4)cc3)nc3ccncc32)c1,inactive: 84%
5,O=S(=O)(NCc1ccccc1Cl)c1cccc(S(=O)(=O)N2CCOCC2)c1,inactive: 104%
6,CCC/C(O)=C1\C(=O)CC(C)(C)CC1=Nc1ccncc1,inactive: 115%
7,Cc1cccc(C(=O)NCc2cn3cccc(C)c3n2)c1,inactive: 109%
8,CC(C)c1ccc(Cc2cnc(NC(=O)c3ccc4c(c3)CC(c3ccccc3)OC4=O)s2)cc1 (centres undefined),inactive: 88%
9,O=c1cc(N2CCN(c3ccc(F)cc3)CC2)[nH]c(=O)n1-c1cccc(Br)c1,inactive: 45%
10,Cc1ccc(C)c(NC(=O)C(NS(=O)(=O)c2ccc3c(c2)CCC(=O)N3)c2ccccc2)c1 (centres undefined),inactive: 128%
11,CC[C@H](C)NC(=O)CCCc1nnc2n(CCC(C)C)c(=O)c3sccc3n12,inactive: 95%
12,COc1ccccc1OC(C)C(=O)N1CCN(CCc2ccccn2)CC1 (centres undefined),inactive: 82%
13,Cc1ccnc(NC(c2cc(C)ccc2O)c2ccc3cccnc3c2O)c1 (centres undefined),active: 3%
14,COc1ccc(-c2cn3c(n2)sc2cc(C(=O)NC4CCCCC4)ccc23)cc1,inactive: 88%
15,Cc1ccc(CNC(=O)C2CCN(S(=O)(=O)c3c(C)noc3/C=C/c3ccccc3F)CC2)o1,inactive: 73%
16,COc1ccc(S(=O)(=O)N(C(=O)c2ccncc2)c2ccc3oc(C)c(C(C)=O)c3c2)cc1,inactive: 133%
17,Cc1ccc(C(=O)c2cc(C)sc2NC(=O)CN2CCN(C(=O)c3ccco3)CC2)cc1,inactive: 110%
18,Cc1ccc(-n2c(=O)c3cccnc3n2CC(=O)Nc2ccccc2C(F)(F)F)cc1C,inactive: 71%
19,COc1cccc(CNC(=O)C2CCCN(S(=O)(=O)c3cn(C)cn3)C2)c1 (centres undefined),inactive: 78%
20,CCOC(=O)C1CCCN(C(=O)Cn2nc(C)n3c(cc4c(OC)cccc43)c2=O)C1 (centres undefined),inactive: 81%
21,CCC(C)n1c(=N)c(C(=O)NC2CCCCC2)cc2c(=O)n3cc(C)ccc3nc21 (centres undefined),inactive: 137%
22,COc1ccccc1N1CCN(Cc2cc(COC(C)C)c3cccnc3c2O)CC1,inactive: 103%
23,O=c1c2ccccc2nc2sc(Nc3cccc(C(F)(F)F)c3)nn12,inactive: 68%

row,Structure (SMILES),survival
1,CCN(CC)c1ccc(C2C(C(N)=O)=C(C)Nc3nc(SCc4ccccc4)nn32)cc1 (centres undefined),inactive: 84%
2,Cc1nc(N(CCO)C2CCCCC2)c2nnn(Cc3ccccc3)c2n1,inactive: 123%
3,COc1ccc(/C=C\c2onc(C)c2S(=O)(=O)N2CCC(C(=O)Nc3ccc(C)c(F)c3)CC2)cc1,inactive: 93%
4,CCOC(=O)c1nnc2c(-c3ccc(F)cc3)c(C)nn2c1N,inactive: 97%
5,CSc1cccc(NS(=O)(=O)c2ccc3[nH]cc(C(=O)N4CCCCCC4)c(=O)c3c2)c1,inactive: 79%
6,Cc1cccc(Cc2c(C)nc3nc(SCC(=O)NC4CCCCC4)nn3c2C)c1,inactive: 74%
7,Fc1ccc(-c2noc3ncnc(NCc4cccc(Cl)c4)c23)cc1,inactive: 55%
8,COCCN1CN=C(NS(=O)(=O)c2ccc(C)cc2)NC1,inactive: 71%
9,COc1ccc(-c2noc(CCC(=O)Nc3ccccc3Cl)n2)cc1OC,inactive: 108%
10,COc1ccccc1CNC(=O)c1cnn(-c2ccc(F)cc2F)c1C1CCN(C(=O)OC(C)(C)C)CC1,inactive: 71%
11,Cc1ccc(N2CC(NC(=O)Cc3ccc(F)cc3)CC2=O)cc1C (centres undefined),inactive: 79%
12,O=C(Nc1ccc(N2CCN(C(=O)c3ccco3)CC2)cc1)c1ccccc1,inactive: 121%
13,CCOc1cc(C2CC(=O)Nc3c2c(C)nn3-c2nc(C)cc(C)n2)ccc1O (centres undefined),inactive: 83%
14,COc1ccccc1N1CCN(C(=O)c2oc3ccccc3c2N)CC1,inactive: 61%
15,Cc1ccc(-c2onc(C)c2C)cc1S(=O)(=O)NC1CCC(C)CC1 (centres undefined),inactive: 99%
16,COC(=O)c1cccnc1-n1c(=O)c2cccnc2n(CC(=O)Nc2cccc(C(F)(F)F)c2)c1=O,inactive: 68%
17,CC1CCN(S(=O)(=O)c2ccc3nc(N4CCN(c5ccccc5F)CC4)ccc3c2)CC1,inactive: 99%
18,COc1ccc(/C=C(\C#N)c2nc(-c3cc4ccccc4oc3=O)cs2)cc1OC,inactive: 70%
19,O=C(/C=C/c1ccccc1)Nc1cc(-c2nc3ccccc3o2)ccc1Cl,inactive: 74%
20,FC(F)(F)c1cccc(N2CCN(Cc3nnc(-c4ccccc4)o3)CC2)c1,inactive: 43%
21,COC(=O)c1ccc(N2C(=O)c3ccc(N)cc3C2=O)cc1,inactive: 109%
22,COc1cc(C)ccc1OCCSc1nnc(-c2cccs2)o1,inactive: 65%
23,CCCN(CCC)CCCNC(=O)c1nn(C)c2c1CS(=O)(=O)c1ccccc1-2,inactive: 109%

row,Structure (SMILES),survival
1,CC(=O)Nc1nonc1-c1nnc(SCc2cccc(Br)c2)n1C,inactive: 115%
2,CCOc1ccccc1CNC(=O)c1ccc(Cn2c(=O)c3cccn3c3cccnc32)cc1,inactive: 80%
3,CC(C)c1ccc(-c2noc(SCC(=O)N3CCCCC3)n2)cc1,inactive: 59%
4,CCc1cccc(C)c1NC(=O)C(CC)Sc1nc2ccncc2[nH]1 (centres undefined),inactive: 122%
5,CCOc1cccc2sc(NC(=O)c3ccc(S(=O)(=O)N4CCc5ccccc54)cc3)nc12,inactive: 73%
6,Cc1ccc(NC(=O)N2CCc3c(sc4c3CCCC4)C2c2ccccc2)cc1F (centres undefined),inactive: 81%
7,CSc1ncc(C(=O)NCc2ccccc2Cl)c(C(F)(F)F)n1,inactive: 70%
8,COc1ccc(CN2CCN(c3ncnc4sc5c(c34)CCCC5)CC2)cc1F,inactive: 39%
9,CCCN1CCN(CC2=C(C(=O)OCC)C(c3cccc(OC)c3OC)NC(=O)N2)CC1 (centres undefined),inactive: 76%
10,CCCCc1nn2c(=O)cc(COC(=O)c3ccc(NC(=O)c4cccc(OC)c4)cc3)nc2s1,inactive: 135%
11,CCCCN(C)C(=O)c1ccc2c(c1)N(Cc1cccc(Cl)c1)C(=O)c1ccccc1S2=O (centres undefined),inactive: 124%
12,CCOC(=O)CSc1nc2cc3c(cc2c(=O)n1CCCCCC(=O)NCc1ccc2c(c1)OCO2)OCO3,inactive: 81%
13,COc1cc(C2Nc3ccccc3-c3nnc(SCc4ccc(Cl)cc4)nc3O2)ccc1OCC(=O)O (centres undefined),inactive: 68%
14,Cc1ccc2c(CC(=O)Nc3ccc(S(=O)(=O)Nc4nc(C)cc(C)n4)cc3)coc2c1,inactive: 76%
15,Cc1cc(C)cc(NC(=O)N2CCN(C)c3ncccc32)c1,inactive: 75%
16,Cn1c(=O)cc(OCC(=O)N2CCN(c3ccccc3F)CC2)c2ccccc21,inactive: 82%
17,CCOc1ccc(CNC(=O)CN2C(=O)CSc3ccc(S(=O)(=O)N4CCOCC4)cc32)cc1OC,inactive: 69%
18,COc1ccc(-c2noc(-c3cc(C(C)C)[nH]n3)n2)cc1,inactive: 65%
19,CCN1CCc2c(sc(NC(=O)CSc3ccccc3)c2-c2nc3ccccc3s2)C1,active: -6%
20,Cc1cc2oc(C(=O)N(Cc3ccc(N(C)C)cc3)CC3CCCO3)c(C)c2cc1C (centres undefined),inactive: 77%
21,O=C(CCCCn1c(=O)c2ccccc2n(Cc2ccccc2F)c1=O)NCc1ccc2c(c1)OCO2,inactive: 137%
22,O=C(NCc1ccc(Cl)cc1)C1(c2cccs2)CCOCC1,inactive: 71%
23,O=C(Nc1ccc(NC(=O)c2cccs2)cc1)c1ccc(Cl)cc1,inactive: 81%

row,Structure (SMILES),survival
1,COC(=O)c1ccccc1NC(=O)Cn1ncc2c(C)n(Cc3ccc(F)cc3)c(C)c2c1=O,inactive: 67%
2,CC(=O)c1cccc(Nc2cc(C)nc3nc(-c4ccccc4C)nn23)c1,inactive: 102%
3,Cc1ccc(CNC(=O)C2CCCN(c3nc4c(C)cc(C)cc4s3)C2)cc1 (centres undefined),inactive: 76%
4,Cc1ccc(OCCSc2nc3ccccc3n2CC(=O)N2CCCCC2)cc1C,inactive: 72%
5,COC(=O)c1ccccc1NC(=O)CCn1nc(C)c2c(C)n(-c3ccccc3)nc2c1=O,inactive: 59%
6,O=C(COc1ccccc1)NCCc1csc(-c2ccc(F)cc2)n1,inactive: 71%
7,Clc1cc(Cl)c2nsnc2c1,inactive: 108%
8,CN(C(=O)Cn1c(=O)n(Cc2ccc(C(=O)NCc3ccc4c(c3)OCO4)cc2)c(=O)c2ccccc21)c1ccccc1,inactive: 96%
9,C=CCN1C(=O)C(C(=O)Nc2ccc(C)cc2)C2CC1(C)Oc1ccccc12 (centres undefined),inactive: 116%
10,CCCCOc1ccc(Cn2c(=O)oc3ccccc32)cc1,inactive: 113%
11,O=C(Cn1cc(S(=O)(=O)Cc2cccc(Cl)c2)c2ccccc21)Nc1ccc(F)c(Cl)c1,inactive: 85%
12,COc1ccc(CNC(=O)CCc2nc3cccnc3n2Cc2ccc(OC)cc2)cc1,inactive: 78%
13,Cc1cc(C(F)(F)F)c(C#N)c(SCC(=O)C(C)(C)C)n1,inactive: 103%
14,Cc1ccccc1Cc1c(C)nc2c(-c3ccccc3)c(C)[nH]n2c1=O,active: -13%
15,CCC(C)c1ccc(NC(=O)CSc2nncn2N)cc1 (centres undefined),inactive: 109%
16,Cc1ccc(NC(=O)Cn2c(=O)n(CCc3ccccc3)c(=O)c3sc4ccccc4c32)cc1C,inactive: 88%
17,COC(=O)c1ccc(NC(=O)c2nn(C)c3c2COc2ccccc2-3)cc1,inactive: 96%
18,CCOc1ccc(OCC(=O)NCCS(=O)(=O)N2CCN(c3ccc(OC)cc3)CC2)cc1,inactive: 70%
19,COc1ccccc1CNS(=O)(=O)c1cc(-c2cc(C)no2)ccc1C,inactive: 124%
20,O=C(NCc1cccc(Cl)c1)c1oc(=O)c2ccccc2c1-c1ccccc1,inactive: 90%
